Experimental data as given in PubChem BioAssay AID624418 (National Center for Advancing Translational Sciences (NCATS), 2012).
Hit rate of the full screen: of about 410,000 compounds, about 530 (0.13%) were called active. The inconclusive results got no clear call from the source; some entries with a clear call stand among them for comparison. The call rests on the fitted dose curve; in most records, active means well fitted inhibition curve with a large enough effect; inconclusive means small, poorly fitted or top-dose-only effect, or another doubt; inactive means no such curve, though single readings can be large or run the other way. Potencies of inconclusive entries are doubtful fits and often do not repeat.
On the % scale 0 is the no-effect control and ±100 the full control effect; potency means the concentration at half of the fitted maximal effect.

Assay: qHTS of GLP-1 Receptor Inverse Agonists: Cytotox Screen
Conditions: HEK293 cAMP-luciferase reporter cells, luminescence, 24 h; activity change, negative = inhibition: at 38.3 µM (top of the series) unless noted
How it was run: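 To flag toxic compounds, the library was rerun on cells for 24 hr at 37 deg C and 5% CO2. Viability-linked luminescence was captured 12 min after adding luciferase detection reagent.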
For `COc1cc(/C=N/n2cnnc2)ccc1OC(=O)c1ccncc1`, the “activity change, negative = inhibition” value was inactive: 4.85%. With `CC(C)C[C@@H]1NC(=O)[C@H](C(C)C)NC(=O)c2cc([N+](=O)[O-])cc(I)c2NCC[C@@H](C(N)=O)NC1=O` the Potency was inconclusive: 31.6 µM [inhibitor, single point]. With `Cc1nc2ccc(NS(=O)(=O)c3cccc([N+](=O)[O-])c3)cc2s1` the Potency was inconclusive: 28.2 µM [inhibitor, single point]. In the case of `CCOC(=O)CC1(c2ccc(OC)c(OC)c2)C(=O)c2ccccc2C1=O`, the Potency was inconclusive: 12.6 µM [inhibitor, single point]. In the case of `CCOc1ccc(NC(=O)CCSc2nc3c(c(CC)c2C#N)C(=O)CC(C)(C)C3)cc1`, the “activity change, negative = inhibition” value was inactive: 8.17%. For `O=C(CN1CCCN(Cc2ccccc2F)S1(=O)=O)Nc1ccc(F)c(Cl)c1`, the Potency was inconclusive: 28.2 µM [inhibitor, single point]. For `O=C1/C(=C\c2cccnc2)CCc2ccccc21`, the Potency was inconclusive: 28.2 µM [inhibitor, partial curve, poor fit]. With `COc1ccccc1N1CCN(C(=O)CCCN2C(=O)c3cccc4cccc(c34)C2=O)CC1` the Potency was inconclusive: 15.8 µM [inhibitor, partial curve, poor fit]. With `CC1Cc2ccccc2N1C(=O)CSc1nc2ccc(NC(=O)COc3ccccc3)cc2s1` (stereo not given) the “activity change, negative = inhibition” value was inactive: 6.47%. With `CCN(CC)C(C(=O)Nc1ccc(C(C)C)cc1)c1ccc2c(c1)OCO2` (stereo not given) the Potency was inconclusive: 31.6 µM [inhibitor, partial curve, poor fit]. With `O=C(COc1ccc(F)cc1)Nc1nc(-c2ccccn2)cs1` the Potency was inconclusive: 28.2 µM [inhibitor, single point]. In the case of `COc1cccc(C(=O)C2CCCN(Cc3cn(C)nc3-c3ccccc3)C2)c1` (stereo not given), the Potency was inconclusive: 25.1 µM [inhibitor, single point]. In the case of `Cc1ccccc1CSc1cn(CC(=O)N2CCCCC2)c2ccccc12`, the “activity change, negative = inhibition” value was inactive: -13.4%. With `Cc1cnc(C(=O)NCCc2ccc(C(F)(F)F)cc2)cn1` the Potency was inconclusive: 20 µM [inhibitor, single point]. In the case of `COc1ccc(C(=O)N2CCN(C3CCN(Cc4ccccc4)CC3)CC2)cc1OC`, the “activity change, negative = inhibition” value was inactive: 15.9%. For `Cc1c(C(=O)NC(C)C2CC3CCC2C3)cccc1[N+](=O)[O-]` (stereo not given), the Potency was inconclusive: 5.62 µM [inhibitor, full curve]. For `CC(C)(C)c1ccc(C(=O)NCCc2csc(-c3ccc(Cl)cc3)n2)cc1`, the “activity change, negative = inhibition” value was inactive: -3.98%. For `CCOC(=O)C(C)(C)N(Cc1ccccc1C)S(=O)(=O)c1ccc(Cl)c([N+](=O)[O-])c1`, the Potency was inconclusive: 28.2 µM [inhibitor, single point]. In the case of `COc1ccc(Cl)cc1C=CC=Nc1ccc(S(N)(=O)=O)cc1`, the Potency was inconclusive: 28.2 µM [inhibitor, single point]. In the case of `CCn1c(SCC(=O)N/N=C/c2c[nH]c3ccccc23)nnc1-c1ccc(C)cc1`, the Potency was inconclusive: 14.1 µM [inhibitor, partial curve, poor fit]. For `CCOc1ccc(C(=O)NC(=S)Nc2ncccc2C)cc1[N+](=O)[O-]`, the Potency was inconclusive: 7.94 µM [inhibitor, single point]. With `CCN1C(=O)[C@H]2[C@@H](c3ccc(C(F)(F)F)cc3)N[C@]3(CCCN(Cc4ccc(Cl)cc4)C3=O)[C@H]2C1=O` the “activity change, negative = inhibition” value was inactive: 4.58%. For `CC(=O)Oc1cc(OC(C)=O)c2c(=O)c(-c3ccc4c(c3)OCCCO4)c(C)oc2c1`, the Potency was inconclusive: 28.2 µM [inhibitor, single point]. With `COc1ccc(C(=O)Nc2cccc(-c3nnc(-c4ccco4)o3)c2)cc1` the Potency was inconclusive: 11.2 µM [inhibitor, partial curve, poor fit]. With `CCOc1ccccc1NC(=O)CN(C)S(=O)(=O)c1ccc(C(=O)N2CCOCC2)s1` the “activity change, negative = inhibition” value was inactive: 1.07%. In the case of `O=C(CSC1CN(C(c2ccccc2)c2ccccc2)C1)N/N=C/c1ccccc1`, the Potency was inconclusive: 31.6 µM [inhibitor, single point]. In the case of `COc1cc(CNC(=O)Nc2nc(C(N)c3ccccc3)cs2)cc(OC)c1OC` (stereo not given), the “activity change, negative = inhibition” value was inactive: 7.63%. For `Cc1cc(Nc2cccc(Cl)c2)nc2ccc(NC(=O)c3cncc(Br)c3)cc12`, the Potency was inconclusive: 7.94 µM [inhibitor, partial curve]. In the case of `O=C(Cc1cccs1)NNC(=S)NCc1ccc(Cl)cc1`, the “activity change, negative = inhibition” value was inactive: -12.1%. For `COc1ccc(C2=CCCCCC2)c(OC)c1OC`, the Potency was inconclusive: 11.2 µM [inhibitor, single point]. With `COc1cc(OC)c(NS(=O)(=O)c2c(C(=O)N3CCC(C)CC3)c(C)n(C)c2C)cc1Cl` the “activity change, negative = inhibition” value was inactive: 0.277%. In the case of `COc1cc(NCCCCC(C)N)c2nccc(C)c2c1` (stereo not given), the “activity change, negative = inhibition” value was inactive: 1.21%. For `Cc1nc2ccn(Cc3cccnc3)c(=O)c2cc1C(=O)N1CCN(c2ccc(F)cc2)CC1`, the “activity change, negative = inhibition” value was inactive: 10%. In the case of `CN(C)Cc1ccc(F)cc1Sc1cc(Cl)ccc1Cl`, the Potency was inconclusive: 28.2 µM [inhibitor, single point]. In the case of `CN(C)CCCN(C(=O)c1ccc(S(=O)(=O)N2CCCCCC2)cc1)c1nc2ccc(Br)cc2s1`, the Potency was inconclusive: 28.2 µM [inhibitor, single point]. In the case of `CN(C)S(=O)(=O)c1cccc(NC(=S)N/N=C/C(c2ccccc2)c2ccccc2)c1`, the Potency was inconclusive: 11.2 µM [inhibitor, partial curve, poor fit]. With `COc1ccc(C(=O)/C=C/c2ccc(OC)cc2OC)c(O)c1` the “activity change, negative = inhibition” value was inactive: 3.95%. With `O=C(Nc1ccc(F)cc1)Nc1cc(OCC(F)(F)F)cc(OCC(F)(F)F)c1` the Potency was inconclusive: 5.62 µM [inhibitor, full curve, poor fit]. With `C=CCc1cc(Cl)ccc1OCCOCCNCCOC` the Potency was inconclusive: 8.91 µM [inhibitor, partial curve]. For `O=C(O)c1cc([N+](=O)[O-])ccc1NCc1ccccc1Cl`, the Potency was inconclusive: 12.6 µM [inhibitor, single point]. For `CC(C)C[C@H](CO)N(Cc1ccccc1)S(=O)(=O)N(Cc1ccccc1)[C@@H](CO)CC(C)C`, the Potency was inconclusive: 20 µM [inhibitor, single point]. In the case of `COc1ccc(CCNC(=S)NC(=O)c2cccc(Cl)c2)cc1OC`, the Potency was inconclusive: 28.2 µM [inhibitor, single point]. With `Fc1c(F)c(F)c(/C=N/NC(=S)Nc2cccnc2)c(F)c1F` the Potency was inconclusive: 3.55 µM [inhibitor, single point]. With `CC(C)(C)OC(=O)C[C@@H]1C/C=C\C[C@@H](CC(=O)N(CCO)Cc2ccccc2)C(=O)N2CCC[C@@H]2COC1=O` the Potency was inconclusive: 28.2 µM [inhibitor, single point]. With `CCOc1ccc(/C=C/[N+](=O)[O-])c2ccccc12` the Potency was inconclusive: 11.2 µM [inhibitor, single point]. With `COc1ccc(NC(=O)CN2CCN(Cc3ccccc3)CC2)cc1` the “activity change, negative = inhibition” value was inactive: 2.19%. With `Cc1cc(NC(=O)CN2C(=O)c3cccnc3Sc3ccccc32)ccc1Br` the “activity change, negative = inhibition” value was inactive: 4.65%. In the case of `COc1cccc(NC(=S)NCc2ccc(F)cc2)c1`, the Potency was inconclusive: 7.08 µM [inhibitor, single point]. With `O=C(NC1CCN(C(=O)N2c3ccccc3Sc3ccccc32)CC1)c1ccco1` the Potency was inconclusive: 22.4 µM [inhibitor, partial curve, poor fit]. For `O=C1CN(C(=O)c2ccccc2)C(c2ccccc2)c2cc(F)ccc2N1` (stereo not given), the “activity change, negative = inhibition” value was inactive: -8.52%. For `Cc1ccc([N+](=O)[O-])cc1S(=O)(=O)Nc1ccc(-c2ccc(N3CCCC3)nn2)cc1`, the Potency was inconclusive: 8.91 µM [inhibitor, partial curve, poor fit]. With `C#CCOCCOCCOCCNc1nc(N2CCN(C(=O)CCCCCCCCCCNC(=O)[C@@H](CCC(=O)O)n3cc(CCCCCN)nn3)CC2)nc(N2CCN(C(=O)CCCCCCCCCCNC(=O)[C@H](CCCCN)n3cc(C[C@@H](C)CC)nn3)CC2)n1` the Potency was inconclusive: 20 µM [inhibitor, single point]. For `COc1ccc(Br)cc1CN(C)C(=O)c1ccccc1OCc1c(C)noc1C`, the Potency was inconclusive: 12.6 µM [inhibitor, single point]. With `CCCCCCNCC(=O)N1CCC(Cc2ccccc2)CC1` the Potency was inconclusive: 11.2 µM [inhibitor, single point]. In the case of `Cc1ccc(/C=N/NC(=O)c2nnn(-c3nonc3N)c2CN(C)c2ccccc2)s1`, the Potency was inconclusive: 25.1 µM [inhibitor, single point]. For `CC1=C(C(=O)N2CCN(c3cccc(Cl)c3)CC2)C2(CCCCC2)OC1=O`, the “activity change, negative = inhibition” value was inactive: -7.42%. With `CCCCNC(=S)Nc1ccccc1Cc1ccccc1` the Potency was inconclusive: 20 µM [inhibitor, single point]. For `C/C(=N\NC(=S)Nc1ccccc1)C1Cc2ccccc2C(=O)O1` (stereo not given), the Potency was inconclusive: 28.2 µM [inhibitor, partial curve, poor fit]. In the case of `CCOC(=O)c1nnn(-c2nonc2-n2cccc2)c1-c1cccc([N+](=O)[O-])c1`, the activity change, negative = inhibition was inconclusive: -30.7% [inhibitor] [at 7.66 µM]. With `CN(C)S(=O)(=O)c1ccc(C(=O)NCCSc2c(-c3ccccc3)[nH]c3ccccc23)cc1` the “activity change, negative = inhibition” value was inactive: -5.54%. For `Cc1ccc(NC(=O)C2OCCc3ccccc32)cc1Cl` (stereo not given), the “activity change, negative = inhibition” value was inactive: 20%. With `CCNC(=S)/N=C(\N)Nc1nc(C)c2cc(C)ccc2n1` the Potency was inconclusive: 28.2 µM [inhibitor, single point]. In the case of `CCN(CC)CCCNC(=O)c1nn2c(C(F)(F)F)cc(-c3ccccc3)nc2c1Cl`, the Potency was inconclusive: 28.2 µM [inhibitor, single point]. In the case of `COc1ccccc1CNC(=O)CN1C(=O)COc2ccc(S(=O)(=O)NC3CCCC3)cc21`, the Potency was inconclusive: 28.2 µM [inhibitor, single point]. In the case of `COc1cc(C(=O)OCC(=O)c2cc(C)n(C)c2C)cc(OC)c1OC`, the Potency was inconclusive: 12.6 µM [inhibitor, single point].
